Laboratory results from the RNAGym collection of RNA variant scans (doi:10.7554/elife.90254).
Read counts are not given, so values of variants with three or more changes are uncertain.

B1: OR4K15 (parent)
chain: GUUAACGGUCAUAGGCCAUGGAAACUAGGAGCACCAUUUCGCUGCCAGUGAAGAAAUGAACAAAGAAAAUCUGGGCCAGGCAGGCAUCAAAAGAAAUAGUCUUGCGCUCAACCAGAAAGUCUGUAAUCAUUUUAAGGGUA

Variants of: B1
Assay: self-cleavage, relative activity (ratio to wild type); higher = more cleavage; in vitro, sequencing; the parent is a self-cleaving ribozyme

| Variant | self-cleavage |
| --- | --- |
| GUUAACGGUCAUAGGCCAUGGAAACUAGGAGCACCAUUUCGCUGCCAGUGAAGAAAUGAACAAAGAAAAUCUGGGCCAGGCAGGCAUCAAAAGAAAUAGUCAUGCGCUCAACCAGGAAGUCUGUAAUCACUCUAAGGGUA [U102A A116G U130C U132C] | 0.02 |
| GUUAACGGUCAUAGGCCAUGGAAACUAGGAGCACCAUUUCGCUGCCAGUGAAGAAAUGAACAAAGAAAAUCUGGGCCAGGCAGGCAUCAAAAGAAAUAGUCAUGCGCUCAACCAGAGAGCCUGUAAUCAAUUUAAGGGUA [U102A A117G U120C U130A] | 0.17 |
| GUUAACGGUCAUAGGCCAUGGAAACUAGGAGCACCAUUUCGCUGCCAGUGAAGAAAUGAACAAAGAAAAUCUGGGCCAGGCAGGCAUCAAAAGAAAUAGUCAUGCGCUCAACUAGAAAGCCUGUGAACAUCUUAAGGGUA [U102A C113U U120C A125G U127A U131C] | 0 |
| GUUAACGGUCAUAGGCCAUGGAAACUAGGAGCACCAUUUCGCUGCCAGUGAAGAAAUGAACAAAGAAAAUCUGGGCCAGGCAGGCAUCAAAAGAAAUAGUCAUGCGCUCAACCAGAAAGUCAGUAACCAUUUUAAGGGUA [U102A U122A U127C] | 0.76 |
| GUUAACGGUCAUAGGCCAUGGAAACUAGGAGCACCAUUUCGCUGCCAGUGAAGAAAUGAACAAAGAAAAUCUGGGCCAGGCAGGCAUCAAAAGAAAUAGUCAUGCGCUCAACCAGAAAGUCUGUAAUCAUCUUAAGGGUU [U102A U131C A140U] | 0.65 |
| GUUAACGGUCAUAGGCCAUGGAAACUAGGAGCACCAUUUCGCUGCCAGUGAAGAAAUGAACAAAGAAAAUCUGGGCCAGGCAGGCAUCAAAAGAAAUAGUCCUGCGCUCGACCAGAAAGUCUGUAAUCAUUUUGAGGGUA [U102C A110G A134G] | 0.14 |
| GUUAACGGUCAUAGGCCAUGGAAACUAGGAGCACCAUUUCGCUGCCAGUGAAGAAAUGAACAAAGAAAAUCUGGGCCAGGCAGGCAUCAAAAGAAAUAGUCCUGCGCUCAACCGGAGAGUCUGUAAUCAUUUUAAGGGUA [U102C A114G A117G] | 1.73 |
| GUUAACGGUCAUAGGCCAUGGAAACUAGGAGCACCAUUUCGCUGCCAGUGAAGAAAUGAACAAAGAAAAUCUGGGCCAGGCAGGCAUCAAAAGAAAUAGUCCUGCGCUCAACCUGAAAGUCUGUAGUCAUUUUAAGGGUA [U102C A114U A126G] | 0.04 |
| GUUAACGGUCAUAGGCCAUGGAAACUAGGAGCACCAUUUCGCUGCCAGUGAAGAAAUGAACAAAGAAAAUCUGGGCCAGGCAGGCAUCAAAAGAAAUAGUCCUGCGCUCAACCUGAAAGUCUGCAAUCAUUUUAAGGGUA [U102C A114U U124C] | 0.02 |
| GUUAACGGUCAUAGGCCAUGGAAACUAGGAGCACCAUUUCGCUGCCAGUGAAGAAAUGAACAAAGAAAAUCUGGGCCAGGCAGGCAUCAAAAGAAAUAGUCCUGCGCUCAACCAGCAAGCCUGUAAUCAUUUUAAGAGUA [U102C A116C U120C G137A] | 1.58 |
| GUUAACGGUCAUAGGCCAUGGAAACUAGGAGCACCAUUUCGCUGCCAGUGAAGAAAUGAACAAAGAAAAUCUGGGCCAGGCAGGCAUCAAAAGAAAUAGUCCUGCGCUCAACCAGAACGCCUGUAAUCAUUUUAAGGGUA [U102C A118C U120C] | 0.6 |
| GUUAACGGUCAUAGGCCAUGGAAACUAGGAGCACCAUUUCGCUGCCAGUGAAGAAAUGAACAAAGAAAAUCUGGGCCAGGCAGGCAUCAAAAGAAAUAGUCCUGCGCUCAACCAGAAAGUCUGUAAUCGUUUUAAGGUUA [U102C A129G G138U] | 1.82 |
| GUUAACGGUCAUAGGCCAUGGAAACUAGGAGCACCAUUUCGCUGCCAGUGAAGAAAUGAACAAAGAAAAUCUGGGCCAGGCAGGCAUCAAAAGAAAUAGUCCUGCGCUCAACCAGAAAGUAUGUAAUCAUUCUAAGGGUA [U102C C121A U132C] | 2.47 |
| GUUAACGGUCAUAGGCCAUGGAAACUAGGAGCACCAUUUCGCUGCCAGUGAAGAAAUGAACAAAGAAAAUCUGGGCCAGGCAGGCAUCAAAAGAAAUAGUCCUGCGCCCAACCAGAAAGUCUGUAAUCAUUUUAAGGGUG [U102C U108C A140G] | 0 |
| GUUAACGGUCAUAGGCCAUGGAAACUAGGAGCACCAUUUCGCUGCCAGUGAAGAAAUGAACAAAGAAAAUCUGGGCCAGGCAGGCAUCAAAAGAAAUAGUCCUGCGCUCAACCAGAAAGUCUGUAACCAUUUUAAGGGUG [U102C U127C A140G] | 1.42 |
| GUUAACGGUCAUAGGCCAUGGAAACUAGGAGCACCAUUUCGCUGCCAGUGAAGAAAUGAACAAAGAAAAUCUGGGCCAGGCAGGCAUCAAAAGAAAUAGUCCUGCGCUCAACCAGAAAGUCUGUAAUCAAUUUAAGGGUG [U102C U130A A140G] | 1.94 |
| GUUAACGGUCAUAGGCCAUGGAAACUAGGAGCACCAUUUCGCUGCCAGUGAAGAAAUGAACAAAGAAAAUCUGGGCCAGGCAGGCAUCAAAAGAAAUAGUCCUGCGCUCAACCAGAAAGUCUGUAAUCAUUUGAAGGGUG [U102C U133G A140G] | 2.65 |
| GUUAACGGUCAUAGGCCAUGGAAACUAGGAGCACCAUUUCGCUGCCAGUGAAGAAAUGAACAAAGAAAAUCUGGGCCAGGCAGGCAUCAAAAGAAAUAGUCUAGCGCUCAACCAGAAAGUCUGUAAUCACUUUAACGGUA [U103A U130C G136C] | 0.15 |
| GUUAACGGUCAUAGGCCAUGGAAACUAGGAGCACCAUUUCGCUGCCAGUGAAGAAAUGAACAAAGAAAAUCUGGGCCAGGCAGGCAUCAAAAGAAAUAGUCUCGCGCUCAUCCAGAAAGACUGUAAUCAUUUUAAGGGUA [U103C A111U U120A] | 0.08 |
| GUUAACGGUCAUAGGCCAUGGAAACUAGGAGCACCAUUUCGCUGCCAGUGAAGAAAUGAACAAAGAAAAUCUGGGCCAGGCAGGCAUCAAAAGAAAUAGUCUCGCGCUCAACCAUACAGUCUGUAAUCAUUUUGAGGGUA [U103C G115U A117C A134G] | 0.01 |
| GUUAACGGUCAUAGGCCAUGGAAACUAGGAGCACCAUUUCGCUGCCAGUGAAGAAAUGAACAAAGAAAAUCUGGGCCAGGCAGGCAUCAAAAGAAAUAGUCUCGCGCUCAACCAGAAAGUCUUUAAUCAUUUUAAGGGUG [U103C G123U A140G] | 1.79 |

| Variant | self-cleavage |
| --- | --- |
| GUUAACGGUCAUAGGCCAUGGAAACUAGGAGCACCAUUUCGCUGCCAGUGAAGAAAUGAACAAAGAAAAUCUGGGCCAGGCAGGCAUCAAAAGAAAUAGUCUCGCGCCCAACCAGAAAGUCAGUAAUCAUUUUAAGGGUA [U103C U108C U122A] | 0.03 |
| GUUAACGGUCAUAGGCCAUGGAAACUAGGAGCACCAUUUCGCUGCCAGUGAAGAAAUGAACAAAGAAAAUCUGGGCCAGGCAGGCAUCAAAAGAAAUAGUCUCGCGCUCAACCAGAAAGUCCGUAACCAUUUUAAGGGUA [U103C U122C U127C] | 0.21 |
| GUUAACGGUCAUAGGCCAUGGAAACUAGGAGCACCAUUUCGCUGCCAGUGAAGAAAUGAACAAAGAAAAUCUGGGCCAGGCAGGCAUCAAAAGAAAUAGUCUGGCACUCAGCCAGAAAGUCUGUAAUCACUUUAAGGGUA [U103G G106A A111G U130C] | 0.01 |
| GUUAACGGUCAUAGGCCAUGGAAACUAGGAGCACCAUUUCGCUGCCAGUGAAGAAAUGAACAAAGAAAAUCUGGGCCAGGCAGGCAUCAAAAGAAAUAGUCUUGAGCUCAACCAGAAAGUCUGUAAUCAUUUUGAAGGUA [C105A A134G G136A] | 0.02 |
| GUUAACGGUCAUAGGCCAUGGAAACUAGGAGCACCAUUUCGCUGCCAGUGAAGAAAUGAACAAAGAAAAUCUGGGCCAGGCAGGCAUCAAAAGAAAUAGUCUUGGGUUCAACCAGGAAGUCUGUAAUCAUUUUAAGGGUA [C105G C107U A116G] | 0.01 |
| GUUAACGGUCAUAGGCCAUGGAAACUAGGAGCACCAUUUCGCUGCCAGUGAAGAAAUGAACAAAGAAAAUCUGGGCCAGGCAGGCAUCAAAAGAAAUAGUCUUGUGCUCAACCAGAAGGUCUGUAAUCAUCUUAAGGGUA [C105U A118G U131C] | 0.01 |
| GUUAACGGUCAUAGGCCAUGGAAACUAGGAGCACCAUUUCGCUGCCAGUGAAGAAAUGAACAAAGAAAAUCUGGGCCAGGCAGGCAUCAAAAGAAAUAGUCUUGUGCUCAACCAGAAAGUCUGUAGUCAUUCUAAGGGUA [C105U A126G U132C] | 0.13 |
| GUUAACGGUCAUAGGCCAUGGAAACUAGGAGCACCAUUUCGCUGCCAGUGAAGAAAUGAACAAAGAAAAUCUGGGCCAGGCAGGCAUCAAAAGAAAUAGUCUUGCUCCCAACCAGAAAGUCUGUAAUCAUUUUGAGGGUA [G106U U108C A134G] | 0 |
| GUUAACGGUCAUAGGCCAUGGAAACUAGGAGCACCAUUUCGCUGCCAGUGAAGAAAUGAACAAAGAAAAUCUGGGCCAGGCAGGCAUCAAAAGAAAUAGUCUUGCGCACAACCAGAAAGUCUGUAACCGUCUUAAGGGUA [U108A U127C A129G U131C] | 0 |
| GUUAACGGUCAUAGGCCAUGGAAACUAGGAGCACCAUUUCGCUGCCAGUGAAGAAAUGAACAAAGAAAAUCUGGGCCAGGCAGGCAUCAAAAGAAAUAGUCUUGCGCCCAACCUGAAGGUCUGUAAUCAUUUUAAGGGUA [U108C A114U A118G] | 0.03 |
| GUUAACGGUCAUAGGCCAUGGAAACUAGGAGCACCAUUUCGCUGCCAGUGAAGAAAUGAACAAAGAAAAUCUGGGCCAGGCAGGCAUCAAAAGAAAUAGUCUUGCGCCCAACCAGAAUGUCUGUAAUCAUCUUAAGGGUA [U108C A118U U131C] | 0 |
| GUUAACGGUCAUAGGCCAUGGAAACUAGGAGCACCAUUUCGCUGCCAGUGAAGAAAUGAACAAAGAAAAUCUGGGCCAGGCAGGCAUCAAAAGAAAUAGUCUUGCGCCCAACCAGAAAGUCUGUAAUCUCUUUAAGGGUA [U108C A129U U130C] | 0 |
| GUUAACGGUCAUAGGCCAUGGAAACUAGGAGCACCAUUUCGCUGCCAGUGAAGAAAUGAACAAAGAAAAUCUGGGCCAGGCAGGCAUCAAAAGAAAUAGUCUUGCGCCCAACCAGAAAGUCCGUAACCAUUUUAAGGGUA [U108C U122C U127C] | 0 |
| GUUAACGGUCAUAGGCCAUGGAAACUAGGAGCACCAUUUCGCUGCCAGUGAAGAAAUGAACAAAGAAAAUCUGGGCCAGGCAGGCAUCAAAAGAAAUAGUCUUGCGCCCAACCAGAAAGUCCGUAAUCAUUCUAAGGGUA [U108C U122C U132C] | 0.01 |
| GUUAACGGUCAUAGGCCAUGGAAACUAGGAGCACCAUUUCGCUGCCAGUGAAGAAAUGAACAAAGAAAAUCUGGGCCAGGCAGGCAUCAAAAGAAAUAGUCUUGCGCUUAACCAGAAAGUCUGUAAUCAUCUAAAGGGUA [C109U U131C U133A] | 0.47 |
| GUUAACGGUCAUAGGCCAUGGAAACUAGGAGCACCAUUUCGCUGCCAGUGAAGAAAUGAACAAAGAAAAUCUGGGCCAGGCAGGCAUCAAAAGAAAUAGUCUUGCGCUCCAACAGAAAGUCUGUAAUCAUUUUAAGGGUG [A110C C112A A140G] | 0 |
| GUUAACGGUCAUAGGCCAUGGAAACUAGGAGCACCAUUUCGCUGCCAGUGAAGAAAUGAACAAAGAAAAUCUGGGCCAGGCAGGCAUCAAAAGAAAUAGUCUUGCGCUCGGCCAGAAAGUCUGUAAUCAGUUUAAGGGUA [A110G A111G U130G] | 0.01 |
| GUUAACGGUCAUAGGCCAUGGAAACUAGGAGCACCAUUUCGCUGCCAGUGAAGAAAUGAACAAAGAAAAUCUGGGCCAGGCAGGCAUCAAAAGAAAUAGUCUUGCGCUCGACCGGAAAGUCUGUAAUCAUUUUAAGGGUU [A110G A114G A140U] | 0.05 |
| GUUAACGGUCAUAGGCCAUGGAAACUAGGAGCACCAUUUCGCUGCCAGUGAAGAAAUGAACAAAGAAAAUCUGGGCCAGGCAGGCAUCAAAAGAAAUAGUCUUGCGCUCGACCAGGAAGUCUGUUAUCAUUUUAAGGGUA [A110G A116G A125U] | 0.13 |
| GUUAACGGUCAUAGGCCAUGGAAACUAGGAGCACCAUUUCGCUGCCAGUGAAGAAAUGAACAAAGAAAAUCUGGGCCAGGCAGGCAUCAAAAGAAAUAGUCUUGCGCUCGACCAGGAAGUCUGUAAUCAUUUUAGGGGUA [A110G A116G A135G] | 0.09 |
